Measurements as given in patent publication US9138416B2, “Sustained-release nanoparticle compositions and methods using the same” (Board of Regents of the University of Nebraska by and …, priority 2004, dated 2015).

What was measured:
[1] = tested on: vascular smooth muscle cells; assay: Anti-proliferative effect, MTS assay; type: cell-based, Human; settings: 490 nm
Experimental: Proliferation was measured using an MTS assay.
To monitor cell proliferation, cells were seeded at a 5,000 cell per well density in 96-well plates and allowed to attach for 24 hours. Different doses of rapamycin (1 ng/mL to 1,000 ng/mL) either loaded in nanoparticles or in solution (rapamycin dissolved in methanol was diluted in the medium) were used. The concentration of methanol in the medium was kept below 0.1% so that it had no effect on cell proliferation. Cells treated with empty nanoparticles or medium served as respective controls for drug-loaded nanoparticles or drug in solution. The medium in the wells was changed on day two and on every alternate day thereafter with no further addition of drug. Anti-proliferative activity of the drug was monitored for eight days of the study using an MTS assay ([…] 96® AQueous, Promega, Madison, Wis.). MTS assay reagent (20 μL/well) was added to each well and the plates were incubated for 3 hours at 37° C. in a cell culture incubator. Color intensity was measured at 490 nm using a microplate reader (Bio-Tek Instrument, Winooski, Vt.).

[2] = tested on: vascular smooth muscle cells; assay: Cell cycle analysis by flow cytometry of DNA; settings: rapamycin 50 ng/mL; two days following treatment

CO[C@H]1C[C@@H]2CC[C@@H](C)[C@@](O)(O2)C(=O)C(=O)N2CCCC[C@H]2C(=O)O[C@H]([C@H](C)C[C@@H]2CC[C@@H](O)[C@H](OC)C2)CC(=O)[C@H](C)/C=C(\C)[C@@H](O)[C@@H](OC)C(=O)[C@H](C)C[C@H](C)/C=C/C=C/C=C/1C [Rapamycin in Solution, rapamycin]
Cell Viability (Absorbance ± SEM) ([1]; Day 2, rapamycin 1 ng/mL): 0.177 ± 0.017
Cell Viability (Absorbance ± SEM) ([1]; Day 2, rapamycin 10 ng/mL): 0.199 ± 0.023
Cell Viability (Absorbance ± SEM) ([1]; Day 2, rapamycin 100 ng/mL): 0.195 ± 0.014
Cell Viability (Absorbance ± SEM) ([1]; Day 2, rapamycin 1000 ng/mL): 0.196 ± 0.011
Cell Viability (Absorbance ± SEM) ([1]; Day 5, rapamycin 1 ng/mL): 0.363 ± 0.019
Cell Viability (Absorbance ± SEM) ([1]; Day 5, rapamycin 10 ng/mL): 0.369 ± 0.036
Cell Viability (Absorbance ± SEM) ([1]; Day 5, rapamycin 100 ng/mL): 0.325 ± 0.023
Cell Viability (Absorbance ± SEM) ([1]; Day 5, rapamycin 1000 ng/mL): 0.354 ± 0.015
Cell Viability (Absorbance ± SEM) ([1]; Day 8, rapamycin 1 ng/mL): 0.633 ± 0.019
Cell Viability (Absorbance ± SEM) ([1]; Day 8, rapamycin 10 ng/mL): 0.688 ± 0.040
Cell Viability (Absorbance ± SEM) ([1]; Day 8, rapamycin 100 ng/mL): 0.692 ± 0.040
Cell Viability (Absorbance ± SEM) ([1]; Day 8, rapamycin 1000 ng/mL): 0.693 ± 0.058
% Apoptosis [2]: 0.06%
percentage of cells in G0/G1 phase [2]: 73.48%
percentage of cells in G2/M [2]: 11.12%
percentage of cells in S phase [2]: 15.41%
